Measurements reported in PubChem BioAssay AID624417 (National Center for Advancing Translational Sciences (NCATS), 2012).
The campaign covered roughly 410,000 compounds. About 6,400 (1.6%) were called active. Inconclusive results, whose numbers are uncertain, are shown with a selection of clear calls. Calls follow the shape of the dose curve; as a rule, active = well fitted inhibition curve with a large enough effect; inconclusive = small, poorly fitted or top-dose-only effect; inactive = no such curve, though single readings can be large or run the other way. No potency is given beside an inconclusive call; the fits are too rough.

The compounds below were run against Glucagon-like peptide 1 receptor (Homo sapiens) (UniProt P43220) (assay: qHTS of GLP-1 Receptor Inverse Agonists (Inhibition Mode)). Details: HEK293 GLP-1R CRE-luciferase, luminescence, 24 h, GLP-1R form is constitutively active; activity change, negative = inhibition: at 38.3 µM (top of the series) unless noted.
UniProt P43220, sequence (P43220 whole entry, looked up): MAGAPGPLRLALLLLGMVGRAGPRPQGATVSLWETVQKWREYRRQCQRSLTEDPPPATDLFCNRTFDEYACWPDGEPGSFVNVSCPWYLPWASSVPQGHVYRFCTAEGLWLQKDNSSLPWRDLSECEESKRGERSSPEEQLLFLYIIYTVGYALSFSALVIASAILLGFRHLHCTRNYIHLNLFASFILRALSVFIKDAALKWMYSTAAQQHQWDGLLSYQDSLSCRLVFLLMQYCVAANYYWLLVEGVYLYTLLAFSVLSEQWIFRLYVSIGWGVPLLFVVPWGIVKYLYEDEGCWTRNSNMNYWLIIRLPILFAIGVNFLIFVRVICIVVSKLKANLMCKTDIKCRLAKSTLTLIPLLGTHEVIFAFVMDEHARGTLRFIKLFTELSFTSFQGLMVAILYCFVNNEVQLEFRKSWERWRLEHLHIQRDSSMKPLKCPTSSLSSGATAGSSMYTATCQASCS
Summary of the method: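 Cells are plated, allowed 12 hours at 37 deg C, then treated with compounds for 24 hr before luciferase detection reagent is added and luminescence is read after 12 min at room temperature. The HEK293 line carries constitutively active GLP-1R with a cAMP-responsive reporter.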
% is scaled to controls: 0 for no effect and ±100 for the full control effect; potency is read from the fitted curve at half-maximal effect; tags tell the direction and shape of the fitted curve.
Also: nearly all actives have a fitted effect of over 55% in size.

| SMILES | Potency | activity change, negative = inhibition |
| --- | --- | --- |
| CCOC(=O)C(CC)/C(C)=N\NC(=O)c1ccccc1O (stereo not drawn) | inconclusive [inhibitor, single point] |  |
| Cc1cc2oc3c(c(=O)c2cc1C)C(c1ccc(C(C)C)cc1)N(CCCN1CCOCC1)C3=O (stereo not drawn) | inconclusive [inhibitor, single point] |  |
| COc1ccc(CN2CCC(Oc3cc(C(=O)NC4CC4)ccc3OC)CC2)c(O)c1 | inconclusive [inhibitor, partial curve, poor fit] |  |
| COc1ccc([N+](=O)[O-])cc1NC(=S)NC(NC(=O)Cc1ccc(OC)c(OC)c1)C(Cl)(Cl)Cl (stereo not drawn) | active: 4.47 µM |  |
| CCOc1ccc(CC(=O)N2CCN=C2SCc2ccc([N+](=O)[O-])cc2)cc1 | inconclusive [inhibitor, partial curve, poor fit] |  |
| COc1ccc(-c2cc(C)no2)cc1S(=O)(=O)NCCCN1CCCCCC1 | inconclusive [inhibitor, partial curve, poor fit] |  |
| O=C(Nc1ccc(Br)cn1)c1cccc(C(=O)Nc2ccc(Br)cn2)c1 |  | inactive: -10.3% |
| O=C(NC(=S)Nc1nc(-c2cccc3ccccc23)cs1)c1cc2ccccc2o1 |  | inactive: 5.89% |
| CCNS(=O)(=O)c1ccc(NC(=O)c2cc(C(F)(F)F)nn2C)cc1 | inconclusive [inhibitor, single point] |  |
| COc1cccc(C(=O)C2CCCN(Cc3cn(CC(N)=O)c4ccccc34)C2)c1 (stereo not drawn) | inconclusive [inhibitor, partial curve] |  |
| CCCCn1nnc(NC(=O)C(c2ccccc2)c2ccccc2)n1 | inconclusive [inhibitor, single point] |  |
| COc1cc(/C=N/NC(=S)NCc2ccco2)cc(OC)c1OC | inconclusive [inhibitor, partial curve, poor fit] |  |
| OCc1c(OCc2cccc(F)c2)ccc2ccccc12 | inconclusive [inhibitor, single point] |  |
| Cc1c(C(=O)Nc2ccc3c(c2)OCO3)oc2ccccc12 | inconclusive [inhibitor, single point] |  |
| O=C(NNc1ccccc1C(F)(F)F)c1sccc1Br | inconclusive [inhibitor, full curve, poor fit] |  |
| CC(C)COCC(O)CCC(=O)NNC(=S)Nc1ccccc1 (stereo not drawn) |  | inactive: 25.1% |
| CCC1CSC(Nc2ccc(C(=O)/C=C/c3ccc(Br)cc3)cc2)=N1 (stereo not drawn) | inconclusive [inhibitor, full curve, poor fit] |  |
| Cc1nc(SCC(=O)Nc2cc(Cl)ccc2[N+](=O)[O-])nc(C)c1C | inconclusive [inhibitor, single point] |  |
| CN1CCN(c2nnc(-c3ccc(Cl)cc3)c3ccccc23)CC1 | inconclusive [inhibitor, single point] |  |
| CCCCc1c(-c2ccc(F)cc2)ncn1CCc1ccccc1OC | inconclusive [inhibitor, partial curve, poor fit] |  |
| O=C(NNC(=O)c1cnccn1)c1ccc(Cl)cc1 | inconclusive [inhibitor, single point] |  |
| Cc1cc2c(OCC(O)CNC3CCCCC3)cccc2[nH]1 (stereo not drawn) | inconclusive [inhibitor, single point] |  |

| SMILES | Potency | activity change, negative = inhibition |
| --- | --- | --- |
| O=C(NC(=S)Nc1ccc(N2CCOCC2)c(Cl)c1)C(c1ccccc1)c1ccccc1 | inconclusive [inhibitor, partial curve, poor fit] |  |
| CCOc1ccc(NC(=S)N2c3ccccc3CC2C)cc1 (stereo not drawn) | inconclusive [inhibitor, single point] |  |
| NNC(=O)c1cccc(COc2ccc3c(c2)CCC3)c1 | active: 1.12 µM |  |
| COc1cc(C(=S)N2CCCC2)cc(Cl)c1OCC(=O)Nc1ccc(C)cc1C | inconclusive [inhibitor, single point] |  |
| CCC(C(=O)OC)n1cnc2scc(-c3ccc(C)c(C)c3)c2c1=O (stereo not drawn) | inconclusive [inhibitor, single point] |  |
| Cn1c2ccccc2c2c(C(=O)N3CCN(c4ccc(F)cc4)CC3)cn(C3CCCCC3)c(=O)c21 | inconclusive [inhibitor, single point] |  |
| O=c1oc2cc(OCc3c(F)c(F)c(F)c(F)c3F)ccc2cc1-c1ccccn1 |  | inactive: 13.8% |
| CCOc1ccccc1Nc1cc(-c2ccccc2)nc(C)n1 | inconclusive [inhibitor, single point] |  |
| COc1ccc(NC(=O)CSc2nnc(-c3cccs3)o2)cc1 |  | inactive: 23.8% |
| CC(=O)C(C(C)=O)c1c(Cl)c(O)c(O)c2c(C(=O)c3ccccc3)coc12 |  | inactive: 12.6% |
| CC(C)(C)NCC(=O)N/N=C/c1ccc(OCc2ccccc2)cc1 | inconclusive [inhibitor, single point] |  |
| COc1cc(C(=O)Nc2ccc3oc(-c4ccccc4)nc3c2)cc(OC)c1OC | inconclusive [inhibitor, single point] |  |
| COc1cc(NC(=O)Cn2ncc3c([nH]c4ccc(C)cc43)c2=O)cc(OC)c1OC |  | inactive: 16.4% |
| Oc1ccc(CN2CCCc3ccccc32)c2cccnc12 |  | inactive: -7.41% |
| CCOc1cc(NC(=O)C2CC2)c(OCC)cc1NC(=O)c1ccccc1OCC | inconclusive [inhibitor, full curve] |  |
| COP(C)(=O)c1c(C)nn(-c2ccccc2)c1C (stereo not drawn) |  | inactive: 1.78% |
| CC(C)C(NC(=O)CN(c1ccc2c(c1)OCCO2)S(=O)(=O)c1ccccc1)C(C)C | inconclusive [inhibitor, partial curve, poor fit] |  |
| O=C(CNC1CCCCCC1)Nc1ccc(S(=O)(=O)NC2CC2)cc1 |  | inactive: -0.0504% |
| O=C(COc1ccccc1)N/N=C/c1ccc([N+](=O)[O-])o1 |  | inactive: 7.12% |
| CN(CCO)Cc1csc2ccc(Br)cc12 | inconclusive [inhibitor, partial curve, poor fit] |  |
| O=S(=O)(c1ccc(F)cc1)N1CCN(C(=S)NC2CC2)CC1 | inconclusive [inhibitor, single point] |  |
